The source gives no read counts; variants with many changes may rest on few reads.
B1: LINE1-full (parent)
chain: UACGUAGGUGGUUUUCCCCUGAUAGUGCUAAGGGGGCCUGGAAGUUUGGACUGGGCAGAGCUCAACACAGCGUGGCAAAGUGGCUGUGGCUAGACUGCCUCUCUGGAUUCCUCGUCACUCAGCAGGGCAUCUCUGAGAGAAAUGCC

Variants of: B1
Assay: self-cleavage, relative activity (ratio to wild type); higher = more cleavage; in vitro, sequencing; the parent is a self-cleaving ribozyme

Variant	self-cleavage
U39A U52C A79G U115C A138G	2.87
U39A U115C A141G	2.04
U39A U46A U134A	1.25
G40A A50G U115C	0.72
C37G U47C G70U	0.06
G36U A59G A69G	0.08
U39A U62C A67G A77U U132C A138G G144A	0.18
U39A A50G U62C C63U U100C U134A	0.2
C37G U39A U52A	1.77
U39C U96A U102C	0.09
U39C C76U A77G U100C C111U U143C	2.62
U39G A78U U134C	1.73
U39C U46C U143C	1.61
U39C U46C U143G	2.04
U39A C101U A117G	1.25
C37U U39C U47C G86A	0.09
U39A U52C U73A	1.94
U39C A69G A142U	0.18
G35U U47G G49A	1.04
U39C U45C A117U	0.61
C37A A43G A141G	1.37

Variant	self-cleavage
G36U A59G U112C	0.07
U39C G86U A117U U134C	0.05
U39A A42G A78G	1.31
U39A A42G A142G	1.33
C37G A94G C120U	0.23
U39C U45C A92U A141G	0.38
U39A U109C U143C	0.71
U39C U102A A107G G114A	2.17
U39C A79G U119A U134C A138G	1.72
U39C U100C C123A	2.05
C38U G82A U112C	1.58
U39C A117C A121U	2.51
C38A A50G G55C A79G	0
U39C A64G U81C	0.33
U39A U62A A69G	0.06
U39A A92U A121G	0.77
G40U A77G C131U	2.23
G36A U45C A67U U109C U115A U134A	0.03
U39A G49A U73C	2.36
G41A U46C A117G	1.38
U39A A57U A121G	0

Variant	self-cleavage
G36A A140G G144U	1.73
G35U U39A G82A	1.45
C38U C56G A107G	0
C38A A77G U96C U130C	0.09
C37A A124G A138G U143C	0.76
U39A U108A U109G A129U U130C	1.15
C37U U102A A136U A140U A141G	1.28
C38U A64U U73A A107G	0.41
U39C A67U A124G	0.04
U39C U81C C123A	1.23
U39C U85A U91A	0.06
U39C A78G U87A	0.04
U39C A57U U62C	0.13
U39A A107G U119A	2.39
U39A U62A A77G U109C	0
U39C A59G A67U A78G	0
G36A U73C G97U	0.03
U39A A43G U85A A121G	0.11
U39C U52C A65U U73A U112C U132C	0
G35U G54U C61U A107G	0.01
C37U U73A A78G G89A A121G U132C	0.06

Variant	self-cleavage
U39C U45G G60A A140G	0.04
C37G A64C U91C A117C U143C	0
G36A U52C U104A	1.08
U39A U46A U62C G114C	0.06
G35U C103U A136G	1.24
G36A U130C U134G	1.44
U39C U73G U96A	0.04
G36U G54A A124G U134C	0.07
U39C A42U C84A U115C A121U U143A	0
G36A A67U A140G	0.07
U39C A64G C66A U91C	0.19
U39C G48A U134A	0.51
G36C A43G U119A	1
U39G G86A A94G	0.2
G41A U85C U132C	0.1
G40A U52A A57U A78G U100A U130C	0.02
G36A A57G A59U U62C U73A U81A	0.02
G35U U85A A94G	0.13
G36A A42U A77U U85A U87C U96A	0.03
G35U U47A A69G A121U A141G	0.22
G36U G49C U100C	2.68

Reference: the RNAGym collection of RNA variant scans (doi:10.7554/elife.90254)
